# In PubChem BioAssay AID360 (National Center for Advancing Translational Sciences (NCATS), 2006):
# About 550 (1.1%) of roughly 48,000 compounds were called active. Inconclusive results (about 4%) are left out. No stated cut-off is given here; in the data, active means potency below about 15 µM; inconclusive means mostly about 16 µM to 33 µM; inactive means weaker than that. Some of the results follow.
# Biological target: Lysosomal acid glucosylceramidase (Homo sapiens) (UniProt P04062)
# Test: Glucocerebrosidase;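 further: the screen sought inhibitors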
# Settings: purified enzyme, resorufin glucoside fluorescence (screen aimed at inhibitors), 20 min
# In short: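 Wild-type enzyme at 0.2 nM final in 50mM citric acid/KH2PO4, 10mM sodium taurocholate, 0.01% tween-20, pH 5.9, with resorufin beta-D-glucopyranoside at 30 uM final. Compounds titrated, 20 min at RT, red fluorescence read; AC50 from titration.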
# Potency means the concentration at half of the fitted maximal effect.
# Chain of UniProt P04062 (P04062 whole entry, looked up): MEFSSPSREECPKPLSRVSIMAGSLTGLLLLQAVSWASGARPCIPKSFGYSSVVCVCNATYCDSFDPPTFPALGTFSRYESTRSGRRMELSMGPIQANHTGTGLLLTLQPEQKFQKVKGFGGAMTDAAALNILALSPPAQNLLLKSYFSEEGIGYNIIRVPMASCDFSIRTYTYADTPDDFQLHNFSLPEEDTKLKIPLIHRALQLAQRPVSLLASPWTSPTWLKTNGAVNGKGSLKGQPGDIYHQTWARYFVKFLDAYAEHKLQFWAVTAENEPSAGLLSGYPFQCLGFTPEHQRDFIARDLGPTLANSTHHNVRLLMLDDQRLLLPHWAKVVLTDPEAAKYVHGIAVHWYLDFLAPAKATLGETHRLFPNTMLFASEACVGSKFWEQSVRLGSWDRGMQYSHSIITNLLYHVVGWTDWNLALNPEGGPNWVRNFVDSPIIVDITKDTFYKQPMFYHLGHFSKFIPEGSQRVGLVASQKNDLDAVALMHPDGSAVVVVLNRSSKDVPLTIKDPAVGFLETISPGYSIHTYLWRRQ
row,Compound,Potency
1,COCCNC(=O)CSc1nc2cc(OC)c(OC)cc2c(=O)n1Cc1ccco1,inactive: > 76.9 µM
2,CCc1cccc(NC(=O)CCS(=O)(=O)c2cccc3nonc23)c1,inactive: > 76.9 µM
3,Cc1ccnc2c1NC(=O)c1cccnc1N2C1CC1,inactive: > 76.9 µM
4,COC(=O)c1ccc(CSc2nc(C)nc3sc(C)c(C)c23)o1,inactive: > 76.9 µM
5,CCOC(=O)c1c(C)oc2c1c(C=NCC1CCCO1)c(O)c1ccccc12 (centres undefined),inactive: > 76.9 µM
6,COCCn1c(SCC(=O)NCc2cccs2)nnc1-c1ccc(OC)cc1,inactive: > 76.9 µM
7,CC1CC(C)CN(C(=O)COc2ccc(-c3nnco3)cc2)C1 (centres undefined),inactive: > 76.9 µM
8,COc1cccc(C(=O)N(c2ccc(OC)cc2OC)C2C=CS(=O)(=O)C2)c1 (centres undefined),inactive
9,COc1ccc(N2CCN(c3nc(=S)n(-c4ccccc4)c(C)c3C(C)=O)CC2)cc1,inactive: > 76.9 µM
10,CCOc1ncccc1C(=O)OCC(=O)c1cc(C)n(Cc2ccco2)c1C,inactive: > 76.9 µM
11,CCOc1ccc(C2C(C(=O)c3ccco3)=C(O)C(=O)N2CCCn2ccnc2)cc1 (centres undefined),inactive: > 76.9 µM
12,COCCn1c(COC)nc2ccccc21,inactive: > 76.9 µM
13,O=C(CSc1nnc(COc2ccccc2)n1Cc1ccco1)c1ccc(F)cc1,inactive: > 76.9 µM
14,CCOc1cc(S(=O)(=O)n2nc(C)cc2C)ccc1F,inactive: > 76.9 µM
15,CC(C)CCNC(=O)CCS(=O)(=O)c1cccc2nonc12,inactive: > 76.9 µM
16,CC(C)(C)c1nc(NCC2CCCO2)c2nnn(Cc3ccccc3)c2n1 (centres undefined),inactive: > 76.9 µM
17,CCOC(=O)c1ccc(Nc2ccc(-c3ccc(OC)c(OC)c3)nn2)cc1,inactive: > 76.9 µM
18,Cc1cc(NCCOCCO)n2ncc(-c3ccc(Cl)cc3)c2n1,inactive: > 76.9 µM
19,CS(=O)(=O)N1CCN(C(=O)c2ccccc2)C1,inactive: > 76.9 µM
20,COCCOC(=O)C1=C(C)N=C2SCCC(=O)N2C1/C=C/c1ccccc1 (centres undefined),inactive: > 76.9 µM

row,Compound,Potency
1,CC(Sc1cccc(C(F)(F)F)c1)C(=O)NC(N)=O (centres undefined),inactive: > 76.9 µM
2,COc1ccc(S(=O)(=O)N2CCN(c3ncnc4c(-c5ccccc5)nsc34)CC2)cc1,inactive: > 76.9 µM
3,O=c1[nH]cnc2cc(Cl)ccc12,inactive: > 76.9 µM
4,Cc1cc(-c2nnco2)c(C)n1-c1ccccc1,inactive: > 76.9 µM
5,CCCCNC(=O)C1CC(=O)N(CCC(C)C)C1 (centres undefined),inactive: > 76.9 µM
6,COc1ccccc1OCc1ccc(C(=O)N2CCN3CCCC3C2)cc1 (centres undefined),inactive: > 76.9 µM
7,CCN(CC)CCCOc1nc(C)nc2c1oc1ccccc12,inactive: > 76.9 µM
8,COc1cc(C(=O)N2CCC(NC(=O)C(Cc3ccccc3C)NC(C)=O)CC2)cc(OC)c1OC (centres undefined),inactive: > 76.9 µM
9,O=C(OCCN1CCOCC1)c1cccnc1,inactive: > 76.9 µM
10,CCn1cnc2cc(NCc3cccc(OC)c3O)ccc21,active: 13.9 µM
11,O=C(NC1CCCCC1)c1ccc(S(=O)(=O)NCc2cccnc2)cc1,inactive: > 76.9 µM
12,CCC1Oc2ccc(C)cc2N(CC(=O)NCCCN2CCN(Cc3ccccc3)CC2)C1=O (centres undefined),inactive: > 76.9 µM
13,CCOC(=O)c1[nH]c(C)c(/C(O)=C2\C(=O)C(=O)N(CCCn3ccnc3)C2c2ccncc2)c1C (centres undefined),inactive: > 76.9 µM
14,CC(C)CNC(=O)CSc1nnc(CN2CCCCCC2=O)n1-c1ccccn1,inactive: > 76.9 µM
15,COc1ccc(-c2noc(CCCC(=O)O)n2)cc1,inactive: > 76.9 µM
16,COc1ccc(S(=O)(=O)Nc2cccc(C)n2)c2ccccc12,inactive: > 76.9 µM
17,O=C(Nc1cccs1)NC1CCCC1,inactive: > 76.9 µM
18,Cc1c(C(=O)NCC2CCCO2)oc2ccc(S(=O)(=O)N3CCCC3)cc12 (centres undefined),inactive: > 76.9 µM
19,CCc1noc(C)c1C(=O)N1CCOCC1,inactive: > 76.9 µM
20,CCOC(=O)c1cccc(NC(=O)CSc2nnc(-c3ccoc3C)n2CC)c1,inactive: > 76.9 µM

row,Compound,Potency
1,CCOC(=O)N1CCC(NC(=O)CSCc2cnn(-c3ccccc3)c2-n2cccc2)CC1,inactive: > 76.9 µM
2,COc1ccc(C2CC(C(F)(F)F)n3nc(C(=O)NCc4cn(C)nc4C)c(Cl)c3N2)cc1 (centres undefined),inactive: > 76.9 µM
3,COC(=O)c1ccccc1NC(=O)c1ccc2c(c1)OCCO2,inactive: > 76.9 µM
4,COC(=O)c1cc(OC)c(OC)cc1NC(=O)c1cccnc1,inactive: > 76.9 µM
5,C=CCN(CC=C)c1nc2ccccc2nc1C(C#N)C(=O)OCCOC (centres undefined),inactive: > 76.9 µM
6,O=C(Cn1c(CC(=O)N2CCCC2)nc2ccccc21)NCc1ccccc1,inactive: > 76.9 µM
7,O=C(Oc1cccc(Br)c1)c1cccnc1,inactive: > 76.9 µM
8,CCC(COC(=O)Nc1cccc(C)c1C)NC(=O)OCC(C)C (centres undefined),inactive: > 76.9 µM
9,Cc1nn2c(-c3ccncc3)nnc2c2ccccc12,inactive: > 76.9 µM
10,COc1cccc(-c2noc(N)c2C#N)c1,inactive: > 76.9 µM
11,COC(=O)c1ccc(CSc2nc(-c3ccccc3)cs2)o1,inactive: > 76.9 µM
12,CCOC(=O)C1=C(C)Nc2nnnn2C1c1c[nH]c2ccccc12 (centres undefined),inactive: > 76.9 µM
13,Cc1cc(C)c(O)c(-c2cc(C(=O)Nc3ccc(S(=O)(=O)N4CCOCC4)cc3)[nH]n2)c1,inactive: > 76.9 µM
14,Cc1cc(C)nc(/N=C2/NC(=O)CS2)n1,inactive: > 76.9 µM
15,CC(C)(C)C(=O)Cn1c[n+](N)cn1,inactive: > 76.9 µM
16,Nc1nc(SCC(=O)NCc2ccco2)[nH]c(=O)c1-c1ccccc1,inactive: > 76.9 µM
17,CCCCn1c(SCC(=O)O)nc2ccccc21,inactive: > 76.9 µM
18,Cc1ccc2c(c1)N(CC(=O)NCCc1c[nH]c3ccccc13)C(=O)CO2,inactive: > 76.9 µM
19,CCOC(=O)NC(=O)CSc1nnnn1-c1ccc(C)cc1,inactive: > 76.9 µM
